Not every detail of the peptide structures is certain; ends, links or a residue may be inferred. Where a SMILES comes first, the peptide text is derived from it. Bridges are numbered along the chain shown (N, C = ends). Roman numbers before positions name the chains, in order. [ ]: non-standard residue; d: D form. ξ: configuration not given here. 1Nal = N[C@@H](Cc1cccc2ccccc12)C(=O)O; ξK = NCCCCC(N)C(=O)O; Ava = NCCCCC(=O)O
Target: T1, EPOR (erythropoietin receptor), human recombinant, NSO cells (Homo sapiens, UniProt P19235)
T1 construct: host or cells: NSO cells
T1 sequence (P19235 25-250 limits assumed): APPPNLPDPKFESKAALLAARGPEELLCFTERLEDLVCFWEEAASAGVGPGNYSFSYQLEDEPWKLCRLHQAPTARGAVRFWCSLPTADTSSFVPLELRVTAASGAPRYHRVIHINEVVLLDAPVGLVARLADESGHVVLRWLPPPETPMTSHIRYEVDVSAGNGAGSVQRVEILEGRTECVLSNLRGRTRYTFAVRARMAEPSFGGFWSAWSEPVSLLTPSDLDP
Assay: EPOR radioligand binding assay ([125I] Erythropoietin competition)
Conditions: Ki relative to that of AC-0005-002
Experimental: IC50 values were determined by a non-linear, least squares regression analysis using MATHIQ™ (computer software for integrating mathematical functions into new or existing software). […] Where presented, the Hill coefficient (nH), defining the slope of the competitive binding curve, was calculated using MATHIQ™.

SMILES: CC[C@H](C)[C@@H]1NC(=O)[C@@H]2CCCN2C(=O)CNC(=O)[C@H](CCSC)NC(=O)[C@H](CCCNC(=N)N)NC(=O)[C@@H](NC(=O)[C@H](CC(C)C)NC(=O)[C@H](Cc2ccc(O)cc2)NC(=O)[C@H](CC(N)=O)NC(C)=O)CSSC[C@@H](C(=O)N[C@@H](CCCCN)C(=O)N2CCC[C@H]2C(=O)NCCCCC(=O)NCCCCC(NC(=O)[C@@H]2CCCN2C(=O)[C@H](CCCCN)NC(=O)[C@@H]2CSSC[C@H](NC(=O)[C@H](CC(C)C)NC(=O)[C@H](Cc3ccc(O)cc3)NC(=O)[C@H](CC(N)=O)NC(C)=O)C(=O)N[C@@H](CCCNC(=N)N)C(=O)N[C@@H](CCSC)C(=O)NCC(=O)N3CCC[C@H]3C(=O)N[C@@H]([C@@H](C)CC)C(=O)N[C@@H]([C@@H](C)O)C(=O)N[C@@H](Cc3c[nH]c4ccccc34)C(=O)N[C@@H](C(C)C)C(=O)N2)C(N)=O)NC(=O)[C@H](C(C)C)NC(=O)[C@H](Cc2c[nH]c3ccccc23)NC(=O)[C@H]([C@@H](C)O)NC1=O (stereo partly shown) [AC-0005-003] (I: Ac-NYLCRMGPITWVCKP[ξK]-NH2 / II: Ac-NYLCRMGPITWVCKP[Ava]; disulfide I:4-I:13, II:4-II:13; amide I:16-II:C)
- Ki (AC-0005-002)/Ki (Example 4, first table): 69
- Ki (AC-0005-002)/Ki (Example 4, second table): 48
- Ki (AC-0005-002)/Ki (Example 4, third table): .041

SMILES: CC[C@H](C)[C@@H]1NC(=O)[C@@H]2CCCN2C(=O)CNC(=O)[C@H](CCSC)NC(=O)[C@H](Cc2c[nH]cn2)NC(=O)[C@@H](NC(=O)[C@H](C)NC(=O)[C@H](Cc2ccc(O)cc2)NC(=O)[C@H](CC(C)C)NC(C)=O)CSSC[C@@H](C(=O)N[C@@H](CCC(N)=O)C(=O)N2CCC[C@H]2C(=O)NCCCCC(=O)NCCCCC(NC(=O)[C@@H]2CCCN2C(=O)[C@H](CCC(N)=O)NC(=O)[C@@H]2CSSC[C@H](NC(=O)[C@H](C)NC(=O)[C@H](Cc3ccc(O)cc3)NC(=O)[C@H](CC(C)C)NC(C)=O)C(=O)N[C@@H](Cc3c[nH]cn3)C(=O)N[C@@H](CCSC)C(=O)NCC(=O)N3CCC[C@H]3C(=O)N[C@@H]([C@@H](C)CC)C(=O)N[C@@H]([C@@H](C)O)C(=O)N[C@@H](Cc3cccc4ccccc34)C(=O)N[C@@H](C(C)C)C(=O)N2)C(N)=O)NC(=O)[C@H](C(C)C)NC(=O)[C@H](Cc2cccc3ccccc23)NC(=O)[C@H]([C@@H](C)O)NC1=O (stereo partly shown) [AC-0005-004] (I: Ac-LYACHMGPIT[1Nal]VCQP[ξK]-NH2 / II: Ac-LYACHMGPIT[1Nal]VCQP[Ava]; disulfide I:4-I:13, II:4-II:13; amide I:16-II:C)
- Ki (AC-0005-002)/Ki (Example 4, first table): 31

SMILES: CC[C@H](C)[C@@H]1NC(=O)[C@@H]2CCCN2C(=O)CNC(=O)[C@H](CCSC)NC(=O)[C@H](Cc2c[nH]cn2)NC(=O)C(NC(=O)[C@H](C)NC(=O)[C@H](Cc2ccc(O)cc2)NC(=O)[C@H](CC(C)C)NC(C)=O)CCOCC(C(=O)N[C@@H](CCC(N)=O)C(=O)N2CCC[C@H]2C(=O)NCCCCC(=O)NCCCCC(NC(=O)[C@@H]2CCCN2C(=O)[C@H](CCC(N)=O)NC(=O)C2COCCC(NC(=O)[C@H](C)NC(=O)[C@H](Cc3ccc(O)cc3)NC(=O)[C@H](CC(C)C)NC(C)=O)C(=O)N[C@@H](Cc3c[nH]cn3)C(=O)N[C@@H](CCSC)C(=O)NCC(=O)N3CCC[C@H]3C(=O)N[C@@H]([C@@H](C)CC)C(=O)N[C@@H]([C@@H](C)O)C(=O)N[C@@H](Cc3cccc4ccccc34)C(=O)N[C@@H](C(C)C)C(=O)N2)C(N)=O)NC(=O)[C@H](C(C)C)NC(=O)[C@H](Cc2cccc3ccccc23)NC(=O)[C@H]([C@@H](C)O)NC1=O (stereo partly shown) [AC-0005-007]
- Ki (AC-0005-002)/Ki (Example 4, first table): 1.7

SMILES: CSCC[C@@H]1NC(=O)[C@H](CCCNC(=N)N)NC(=O)C(NC(=O)[C@H](CC(C)C)NC(=O)[C@H](Cc2ccc(O)cc2)NC(=O)[C@H](CC(N)=O)NC(C)=O)CCOCC(C(=O)N[C@@H](CCCCN)C(=O)N2CCC[C@H]2C(=O)NCCCCC(=O)NCCCCC(NC(=O)[C@@H]2CCCN2C(=O)[C@H](CCCCN)NC(=O)C2COCCC(NC(=O)[C@H](CC(C)C)NC(=O)[C@H](Cc3ccc(O)cc3)NC(=O)[C@H](CC(N)=O)NC(C)=O)C(=O)N[C@@H](CCCNC(=N)N)C(=O)N[C@@H](CCSC)C(=O)NCC(=O)N[C@@H](Cc3c[nH]c4ccccc34)C(=O)N[C@@H](C(C)C)C(=O)N2)C(N)=O)NC(=O)[C@H](C(C)C)NC(=O)[C@H](Cc2c[nH]c3ccccc23)NC(=O)CNC1=O (stereo partly shown) [AC-0005-018]
- Ki (AC-0005-002)/Ki (Example 4, fourth table): 117
- Ki (AC-0005-002)/Ki (Example 4, second table): 176

SMILES: CSCC[C@@H]1NC(=O)[C@H](CCCNC(=N)N)NC(=O)C(NC(=O)[C@H](CC(C)C)NC(=O)[C@H](Cc2ccc(O)cc2)NC(=O)[C@H](CC(N)=O)NC(C)=O)CCOCC(C(=O)N[C@@H](CCCCN)C(=O)N2CCC[C@H]2C(=O)NCCCCC(=O)NCCCCC(NC(=O)[C@@H]2CCCN2C(=O)[C@H](CCCCN)NC(=O)C2COCCC(NC(=O)[C@H](CC(C)C)NC(=O)[C@H](Cc3ccc(O)cc3)NC(=O)[C@H](CC(N)=O)NC(C)=O)C(=O)N[C@@H](CCCNC(=N)N)C(=O)N[C@@H](CCSC)C(=O)NCCC(=O)N[C@@H](Cc3c[nH]c4ccccc34)C(=O)N[C@@H](C(C)C)C(=O)N2)C(N)=O)NC(=O)[C@H](C(C)C)NC(=O)[C@H](Cc2c[nH]c3ccccc23)NC(=O)CCNC1=O (stereo partly shown) [AC-0005-019]
- Ki (AC-0005-002)/Ki (Example 4, second table): 143

SMILES: CSCC[C@@H]1NC(=O)[C@H](CCCNC(=N)N)NC(=O)C(NC(=O)[C@H](CC(C)C)NC(=O)[C@H](Cc2ccc(O)cc2)NC(=O)[C@H](CC(N)=O)NC(C)=O)CCOCC(C(=O)N[C@@H](CCCNC(=N)N)C(=O)N2CCC[C@H]2C(=O)NCCCCC(=O)NCCCCC(NC(=O)[C@@H]2CCCN2C(=O)[C@H](CCCNC(=N)N)NC(=O)C2COCCC(NC(=O)[C@H](CC(C)C)NC(=O)[C@H](Cc3ccc(O)cc3)NC(=O)[C@H](CC(N)=O)NC(C)=O)C(=O)N[C@@H](CCCNC(=N)N)C(=O)N[C@@H](CCSC)C(=O)NCC(=O)N[C@@H](Cc3c[nH]c4ccccc34)C(=O)N[C@@H](C(C)C)C(=O)N2)C(N)=O)NC(=O)[C@H](C(C)C)NC(=O)[C@H](Cc2c[nH]c3ccccc23)NC(=O)CNC1=O (stereo partly shown) [AC-0005-020]
- Ki (AC-0005-002)/Ki (Example 4, fourth table): 88

SMILES: CSCC[C@@H]1NC(=O)[C@H](CCCNC(=N)N)NC(=O)C(NC(=O)[C@H](CC(C)C)NC(=O)[C@H](Cc2ccc(O)cc2)NC(=O)[C@H](CC(N)=O)NC(C)=O)CCOCC(C(=O)N[C@@H](CCCCNC(=N)N)C(=O)N2CCC[C@H]2C(=O)NCCCCC(=O)NCCCCC(NC(=O)[C@@H]2CCCN2C(=O)[C@H](CCCCNC(=N)N)NC(=O)C2COCCC(NC(=O)[C@H](CC(C)C)NC(=O)[C@H](Cc3ccc(O)cc3)NC(=O)[C@H](CC(N)=O)NC(C)=O)C(=O)N[C@@H](CCCNC(=N)N)C(=O)N[C@@H](CCSC)C(=O)NCC(=O)N[C@@H](Cc3c[nH]c4ccccc34)C(=O)N[C@@H](C(C)C)C(=O)N2)C(N)=O)NC(=O)[C@H](C(C)C)NC(=O)[C@H](Cc2c[nH]c3ccccc23)NC(=O)CNC1=O (stereo partly shown) [AC-0005-021]
- Ki (AC-0005-002)/Ki (Example 4, fourth table): 323

SMILES: CSCC[C@@H]1NC(=O)[C@H](CCCNC(=N)N)NC(=O)C(NC(=O)[C@H](CC(C)C)NC(=O)[C@H](Cc2ccc(O)cc2)NC(=O)[C@H](CC(N)=O)NC(C)=O)CCOCC(C(=O)N[C@@H](CCCCN)C(=O)N2CCC[C@H]2C(=O)NCCCCC(=O)NCCCCC(NC(=O)[C@@H]2CCCN2C(=O)[C@H](CCCCN)NC(=O)C2COCCC(NC(=O)[C@H](CC(C)C)NC(=O)[C@H](Cc3ccc(O)cc3)NC(=O)[C@H](CC(N)=O)NC(C)=O)C(=O)N[C@@H](CCCNC(=N)N)C(=O)N[C@@H](CCSC)C(=O)N[C@@H](Cc3ccccc3)C(=O)N[C@@H](Cc3c[nH]c4ccccc34)C(=O)N[C@@H](C(C)C)C(=O)N2)C(N)=O)NC(=O)[C@H](C(C)C)NC(=O)[C@H](Cc2c[nH]c3ccccc23)NC(=O)[C@H](Cc2ccccc2)NC1=O (stereo partly shown) [AC-0005-022]
- Ki (AC-0005-002)/Ki (Example 4, fourth table): 228

SMILES: CSCC[C@@H]1NC(=O)[C@H](CCCNC(=N)N)NC(=O)C(NC(=O)[C@H](CC(C)C)NC(=O)[C@H](Cc2ccc(O)cc2)NC(=O)[C@H](CC(N)=O)NC(C)=O)CCOCC(C(=O)N[C@@H](CCCCN)C(=O)N2CCC[C@H]2C(=O)NCCCCC(=O)NCCCCC(NC(=O)[C@@H]2CCCN2C(=O)[C@H](CCCCN)NC(=O)C2COCCC(NC(=O)[C@H](CC(C)C)NC(=O)[C@H](Cc3ccc(O)cc3)NC(=O)[C@H](CC(N)=O)NC(C)=O)C(=O)N[C@@H](CCCNC(=N)N)C(=O)N[C@@H](CCSC)C(=O)N[C@@H](CCc3ccccc3)C(=O)N[C@@H](Cc3c[nH]c4ccccc34)C(=O)N[C@@H](C(C)C)C(=O)N2)C(N)=O)NC(=O)[C@H](C(C)C)NC(=O)[C@H](Cc2c[nH]c3ccccc23)NC(=O)[C@H](CCc2ccccc2)NC1=O (stereo partly shown) [AC-0005-023]
- Ki (AC-0005-002)/Ki (Example 4, fourth table): 228

SMILES: CSCC[C@@H]1NC(=O)[C@H](CCCNC(=N)N)NC(=O)C(NC(=O)[C@H](CC(C)C)NC(=O)[C@H](Cc2ccc(O)cc2)NC(=O)[C@H](CC(N)=O)NC(C)=O)CCOCC(C(=O)N[C@@H](CCCCN)C(=O)N2CCC[C@H]2C(=O)NCCCCC(=O)NCCCCC(NC(=O)[C@@H]2CCCN2C(=O)[C@H](CCCCN)NC(=O)C2COCCC(NC(=O)[C@H](CC(C)C)NC(=O)[C@H](Cc3ccc(O)cc3)NC(=O)[C@H](CC(N)=O)NC(C)=O)C(=O)N[C@@H](CCCNC(=N)N)C(=O)N[C@@H](CCSC)C(=O)N[C@@H](CC(C)C)C(=O)N[C@@H](Cc3c[nH]c4ccccc34)C(=O)N[C@@H](C(C)C)C(=O)N2)C(N)=O)NC(=O)[C@H](C(C)C)NC(=O)[C@H](Cc2c[nH]c3ccccc23)NC(=O)[C@H](CC(C)C)NC1=O (stereo partly shown) [AC-0005-024]
- Ki (AC-0005-002)/Ki (Example 4, fourth table): 114

From patent publication US9422338B2 (EpoDose LLC, priority 2011, dated 2016)
